From article PMC7819943, “Rice protein-binding microarrays: a tool to detect cis-acting elements near promoter regions in rice” come the findings set out here.

The list shows a part of the results.

The target of the experiment is T1, OsWOX13 (Oryza sativa, UniProt Q5QMM3 1-267).
T1 sequence: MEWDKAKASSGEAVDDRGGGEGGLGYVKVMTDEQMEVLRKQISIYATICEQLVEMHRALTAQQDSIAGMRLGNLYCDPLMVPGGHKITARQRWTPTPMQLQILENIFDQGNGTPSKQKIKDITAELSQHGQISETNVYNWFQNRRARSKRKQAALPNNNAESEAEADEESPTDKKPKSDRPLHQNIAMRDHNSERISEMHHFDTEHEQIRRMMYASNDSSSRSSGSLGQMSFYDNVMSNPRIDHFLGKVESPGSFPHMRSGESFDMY
Nature of the experiment: protein-binding microarray (RPBM); PBS, 2% BSA, 51.3 ng/ul salmon testes DNA, 50 uM zinc acetate, 200 nM TF, 25 C, 1 h; high values mean tight binding. The settings on record: protein: recombinant; tags: N-terminal polyhistidine and DsRed monomer fusion (pET32a); label: CyDye5-dUTP incorporated in the synthesized complementary strand; 3' TTTTT single-stranded linker to array surface; dsDNA, one strand shown. Summed up: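 In PBS with 2% BSA, salmon testes DNA and 50 µM zinc acetate, 200 nM protein was incubated on a custom Agilent array at 25 °C for 1 h and then washed off. The array had been made double-stranded by primer extension with Cy5-dUTP and blocked with 2% BSA. The proteins were transcription factors fused N-terminally to polyhistidine and DsRed, expressed in E. coli BL21-CodonPlus and purified on Ni–NTA. The binding signal is per-feature fluorescence intensity (arbitrary units) from an Axon 4000B scanner.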
In the case of “CTGATTGTCTGCAGTAATGTAGACGACAGTTACTGCTCATCGGAGTCACCTAGTGCAG”, the binding signal was 32000 fluorescence intensity (a.u.).
For “ATATCATCAATTTATCACCAATCTGAATTTATTTTCCACCCGGAGTCACCTAGTGCAG” the value was 12500 fluorescence intensity (a.u.); for “ATTTCTTAATGAAAGGAGAACTAATTAGGTCGCATGCGCCCGGAGTCACCTAGTGCAG”, 3290 fluorescence intensity (a.u.).
For “TTGATTCGAATTGATGTCATTAGCACCTATAACTTCCGACCGGAGTCACCTAGTGCAG” the value was 14000 fluorescence intensity (a.u.); for “AACTGATTTGATGTGAATTTCTTTTATTCCAATTGAACATCGGAGTCACCTAGTGCAG”, 50900 fluorescence intensity (a.u.); for “TTGTATAAATTGCTATTAGATTGGCTATATATGAATTAGACGGAGTCACCTAGTGCAG”, 37500 fluorescence intensity (a.u.).
For “GGTTTATTTGGGACAGGTGGGAGGTTGGTAAGTGAGAATACGGAGTCACCTAGTGCAG” the value was 3500 fluorescence intensity (a.u.); for “AGCAAAATTGATTGCTAATCTTCGGTGTCCAGCAGAGCCCCGGAGTCACCTAGTGCAG”, 64900 fluorescence intensity (a.u.); for “AGGATTGACTGGGCGCTGGAGAGGATTGACTGGTTAGGGTCGGAGTCACCTAGTGCAG”, 49300 fluorescence intensity (a.u.).
For “TATAGATGGACTAAATCAACGTGCCACGTCAATGAAACTACGGAGTCACCTAGTGCAG”, the binding signal was 4380 fluorescence intensity (a.u.).
Take “AATAATTATTTCTATAATCCCATGAATAGTTCGGTAAGAACGGAGTCACCTAGTGCAG”: the binding signal was 19500 fluorescence intensity (a.u.).
The result for “ATGAGGTTATTGATTTGCTGAATAAACAATTTTATGGTGACGGAGTCACCTAGTGCAG” reads 3750 fluorescence intensity (a.u.); that for “AATATCATAATTAATAGATACAATTGCCTAAACTTTATCTCGGAGTCACCTAGTGCAG”, 13800 fluorescence intensity (a.u.); that for “GCTTCTCTAATTGTCAAATCCAAAACGTTTTATTTACTAACGGAGTCACCTAGTGCAG”, 7600 fluorescence intensity (a.u.).
For “TTGGATCACTCAATAAATTTAATGCATGTAACCGATAGGACGGAGTCACCTAGTGCAG”, the binding signal was 4770 fluorescence intensity (a.u.).
“TCTTGATGAAACGAAAACATATGTGGTAACTCCACCCTCACGGAGTCACCTAGTGCAG”: the binding signal was 4440 fluorescence intensity (a.u.).
For “ACCTAATATCAAATAATTAAAAGGGGTGAGATTTCGAATTCGGAGTCACCTAGTGCAG” the value was 4590 fluorescence intensity (a.u.); for “ATTTATTACTATAATTAAATAAATAATCTATTACTCTGTACGGAGTCACCTAGTGCAG”, 8800 fluorescence intensity (a.u.).
On to “TTTTCCAGTTGTTTAAATTAAATTAAACCCAAATCGATCCCGGAGTCACCTAGTGCAG”, for which the binding signal is 6140 fluorescence intensity (a.u.).
For the sequence “TAGTTAATTACCACTCACACTGAAAAGAAGAAGAAAGCATCGGAGTCACCTAGTGCAG”, the binding signal was 25300 fluorescence intensity (a.u.).
For the sequence “ATGTTGATTGGAGTCTGATAACTTGTCACTGGATGACATGCGGAGTCACCTAGTGCAG”, the binding signal is 61700 fluorescence intensity (a.u.).
For “TTTAATGTAATTTTAGTATATAACAGATAGATTTAGAAGACGGAGTCACCTAGTGCAG” the value was 15800 fluorescence intensity (a.u.); for “TCCGTCTCTCACCTTCAATCAAACTTCCAAAATCTGAACCCGGAGTCACCTAGTGCAG”, 4490 fluorescence intensity (a.u.).
The result for “ATAAATTGCAACAAAGTGGATAAACCAGTGGGTGATGAGACGGAGTCACCTAGTGCAG” reads 15000 fluorescence intensity (a.u.); that for “AGATGACATATCATGATAAGTTCTAAGATTTGGATATGCACGGAGTCACCTAGTGCAG”, 3280 fluorescence intensity (a.u.).
For “TCACCAGCCAATCACGAACGGAAGCCGGTGCCGTCCCCTTCGGAGTCACCTAGTGCAG” the value was 14600 fluorescence intensity (a.u.); for “CTAGATTGATCGAAATCCGTCAAGTTCATGAACCGTTAAGCGGAGTCACCTAGTGCAG”, 54400 fluorescence intensity (a.u.); for “TCCTTTAATTATATAATAGATATTTGGAGGAACTAATCTCCGGAGTCACCTAGTGCAG”, 24300 fluorescence intensity (a.u.).
Take “TATCGATTAATTGATCATATATACTGTACTCCTGTATATCCGGAGTCACCTAGTGCAG”: the binding signal is 33500 fluorescence intensity (a.u.).
Turning to “ATAAATTTATAGAGTTCAAGAAAACTTAGATCCAGTGTTGCGGAGTCACCTAGTGCAG”, the binding signal was 10600 fluorescence intensity (a.u.).
Regarding “ACAAAACCAACTAATTAGGCAGGCAGCCATTTACCTCCATCGGAGTCACCTAGTGCAG”, the binding signal is 5480 fluorescence intensity (a.u.).
Turning to “TGTTAATTTGCAGAGCATGGTTGACTGTGAGTTCTTGATGCGGAGTCACCTAGTGCAG”, the binding signal was 41700 fluorescence intensity (a.u.).
On to “CACCATGATTGATTGCTCCATGCACACACATTGAGACACGCGGAGTCACCTAGTGCAG”, for which the binding signal was 59700 fluorescence intensity (a.u.).
For “CTATAATTACCTGCATGGCCGTCTTTCTTCGCTCAAAACACGGAGTCACCTAGTGCAG”, the binding signal was 9510 fluorescence intensity (a.u.).
For “AAGTAATTATGGGCCTTGCACACGAGGGGATAGTCCAAAGCGGAGTCACCTAGTGCAG” the value was 5970 fluorescence intensity (a.u.); for “GCGATTCAATCAGGAACAAGACACGAGAGAGGCGAAATGGCGGAGTCACCTAGTGCAG”, 8290 fluorescence intensity (a.u.); for “CTGGTAATTTCTAATCCGGTAATCCCTAATATTGGATTATCGGAGTCACCTAGTGCAG”, 11600 fluorescence intensity (a.u.).
For “TCACCATTTTAATTTATTGTCCATGCGCCATGTAAGAGGACGGAGTCACCTAGTGCAG” the value was 4250 fluorescence intensity (a.u.); for “CAGGATTAAGTTGATTGATAGACAATAAATAATTATTTCTCGGAGTCACCTAGTGCAG”, 27500 fluorescence intensity (a.u.); for “CCTATGAAGATAATGCTAATTAACCGAATACATAGGAATTCGGAGTCACCTAGTGCAG”, 4510 fluorescence intensity (a.u.).
For “ATTTGATAAATGGGATGCCACGTGTACACCACGTCAACAGCGGAGTCACCTAGTGCAG” the value was 4270 fluorescence intensity (a.u.); for “ATCATAGCAGTAATTACCTTTGTAAATTCTAAAAGCAGTCCGGAGTCACCTAGTGCAG”, 7500 fluorescence intensity (a.u.).
